The text below walks through data of paper PMC4336329 (PLoS ONE, 2015).

Hit rate of the full screen: of about 310,000 compounds, about 2,200 (0.71%) showed an effect of 50% or more. Effects have a minus sign here. This is one part of the list.

Chain of human ether-à-go-go-related gene (hERG) potassium channel (Q12809 whole entry, looked up): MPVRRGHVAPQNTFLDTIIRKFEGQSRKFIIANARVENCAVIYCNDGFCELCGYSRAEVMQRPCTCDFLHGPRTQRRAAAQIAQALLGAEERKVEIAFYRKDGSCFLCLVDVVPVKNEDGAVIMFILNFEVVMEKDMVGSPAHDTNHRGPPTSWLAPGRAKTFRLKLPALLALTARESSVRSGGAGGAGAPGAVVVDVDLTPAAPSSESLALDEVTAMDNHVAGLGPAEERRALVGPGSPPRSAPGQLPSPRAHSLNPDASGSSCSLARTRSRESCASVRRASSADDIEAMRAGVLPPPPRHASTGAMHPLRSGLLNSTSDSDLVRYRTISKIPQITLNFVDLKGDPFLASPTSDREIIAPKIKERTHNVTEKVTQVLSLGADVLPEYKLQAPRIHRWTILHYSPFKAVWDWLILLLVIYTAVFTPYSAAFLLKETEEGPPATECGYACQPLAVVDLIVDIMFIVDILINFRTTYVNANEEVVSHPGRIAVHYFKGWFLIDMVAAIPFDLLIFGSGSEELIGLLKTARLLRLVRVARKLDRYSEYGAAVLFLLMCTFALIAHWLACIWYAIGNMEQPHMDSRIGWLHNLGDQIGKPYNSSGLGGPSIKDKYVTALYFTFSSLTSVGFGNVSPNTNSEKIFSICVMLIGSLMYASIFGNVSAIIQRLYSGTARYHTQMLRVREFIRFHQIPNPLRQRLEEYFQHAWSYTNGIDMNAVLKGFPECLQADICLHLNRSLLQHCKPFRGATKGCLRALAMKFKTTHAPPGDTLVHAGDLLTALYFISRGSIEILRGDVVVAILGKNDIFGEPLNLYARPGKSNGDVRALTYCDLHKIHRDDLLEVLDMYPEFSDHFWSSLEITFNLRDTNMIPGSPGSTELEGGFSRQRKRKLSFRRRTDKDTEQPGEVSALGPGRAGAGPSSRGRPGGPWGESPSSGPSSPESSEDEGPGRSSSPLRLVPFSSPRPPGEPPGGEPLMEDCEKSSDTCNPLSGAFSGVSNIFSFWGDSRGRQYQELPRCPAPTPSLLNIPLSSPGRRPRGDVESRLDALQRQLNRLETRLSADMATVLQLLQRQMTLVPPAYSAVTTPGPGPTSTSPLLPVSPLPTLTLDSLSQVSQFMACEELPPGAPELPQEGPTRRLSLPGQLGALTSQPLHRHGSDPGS

The assay has as its target human ether-à-go-go-related gene (hERG) potassium channel (human, UniProt Q12809). Kind of assay: primary screen, population patch clamp on CHO cells stably expressing hERG.
In the case of `CSCCC(NC(=O)c1ccccc1Cl)C(=O)N1CCCCCCC1` (stereo not drawn), the “hERG current change (%, negative = inhibition) at 1uM” value was 8.61%.
With `COn1c(=O)c(-c2ccc(F)cc2)[n+]([O-])c2ccccc21` the figure was 17.1%; with `Cn1c(-c2ccccc2)c(/C=N/NC(=O)c2cccnc2)c2ccccc21`, 15.5%; with `CCCN(CC(=O)Nc1ccccc1C)C(=O)/C=C/c1ccc(S(=O)(=O)N2CCCCCC2)cc1`, 5.68%.
Next, `Cc1cc(C)c(S(=O)(=O)N2CCCCC2CCNC(=O)C(=O)NCc2cccnc2)c(C)c1` (stereo not drawn): -0.0941%; `CCOC(=O)c1ccccc1NC(=O)CC1SC(=NC)N(C)C1=O` (stereo not drawn): 12.6%.
Take `Cc1ccc(-c2ccc(CCC(=O)O)o2)cc1`: the “hERG current change (%, negative = inhibition) at 1uM” value is recorded as 11.9%.
With `Cc1cc(-c2n[nH]c(=S)n2/N=C/c2c[nH]c3ccccc23)n[nH]1` the figure was 2.02%; with `COc1ccc(-c2nc(CN3CCN(C(=O)c4ccco4)CC3)c(C)o2)cc1OC`, 8.24%; with `Cc1onc(-c2c(Cl)cccc2Cl)c1C(O)c1ccc(F)cc1` (stereo not drawn), 1.38%.
In the case of `CSc1cnc2c(N)nc(N(C)C)nc2n1`, the “hERG current change (%, negative = inhibition) at 1uM” value stood at 13.5%.
With `CCOC(=O)[C@H]1[C@H]2COc3cc(OC)ccc3[C@@H]2N2C(=O)CN(Cc3ccc(C)cc3)C(=O)[C@@]12C` the figure was 7.54%; with `CCOc1ccc(CCNC(=O)C2CCN(S(=O)(=O)N3CC(C)CC(C)C3)CC2)cc1OCC` (stereo not drawn), 14.9%.
Take `CN(CC1COc2ccccc2O1)c1nc(-c2cccnc2)nc2ccccc12` (stereo not drawn): the “hERG current change (%, negative = inhibition) at 1uM” value is 3.34%.
With `COc1ccc(CNC(=O)c2cc3c(C)nc4ccccc4c3o2)c(OC)c1` the figure was -1.16%; with `Cc1cc(NC(=O)CCC(=O)N(CC(=O)NCC2CCCO2)c2ccc3c(c2)OCCO3)no1` (stereo not drawn), 6.95%.
With `CCCC[C@@H]1CNC(=O)C(=O)N1CCc1cccc2ccccc12` the figure was 11.6%; with `CC(C)c1ccc(-n2c(O)c(/C=N/NC(=O)c3ccncc3)c(=O)[nH]c2=O)cc1`, 12.1%.
Next, `CC1CC(C)CN(C(=O)CCS(=O)(=O)c2ccc3c(c2)NC(=O)CS3)C1` (stereo not drawn): 12.7%.
On to `O=C(NCCNc1ccc([N+](=O)[O-])cc1Cl)c1ccccc1F`, for which the “hERG current change (%, negative = inhibition) at 1uM” value is on record as 10.4%.
On to `CC(C)(Oc1ccc(Cl)cc1)C(=O)N(Cc1ccccc1)c1ccccn1`, for which the “hERG current change (%, negative = inhibition) at 1uM” value came to 0.163%.
With `COc1ccc(-n2nc(C(=O)NCC(=O)NCCCN3CCOCC3)c3ccccc3c2=O)cc1` the figure was 12.3%; with `Cc1ccccc1C1c2[nH]c3ccccc3c2C[C@H]2C(=O)N(c3ccccc3C(=O)NCCCN3CCOCC3)C(=O)N12` (stereo partly drawn), 4.68%; with `CCOC(=O)c1cnc2c(cnn2C)c1Cl`, 10.9%.
For the compound `Cc1ccc(S(=O)(=O)N2c3ccccc3OCC2C(C)(C)C)cc1` (stereo not drawn), the “hERG current change (%, negative = inhibition) at 1uM” value turned out to be 7.9%.
With `COc1ccc(OC(=O)C(C)N2C(=O)c3ccccc3C2=O)cc1` (stereo not drawn) the figure was 7.76%.
In the case of `CCOc1ccc(N2C(=O)CC(SCc3nc4ccccc4[nH]3)C2=O)cc1` (stereo not drawn), the “hERG current change (%, negative = inhibition) at 1uM” value was -2.38%.
With `CC(C)(C)C1CCc2onc(C(=O)NCc3ccc(F)cc3)c2C1` (stereo not drawn) the figure was 3.6%; with `CC(=O)Nc1cccc2c1OCCO2`, 6.16%.
Next, `Cc1ccc(-c2cc(C(=O)NCCCn3ccnc3)c3ccccc3n2)s1`: -41.4%; `COc1ccc(/C=C2/C(=O)NC(=O)N(c3ccccc3)C2=O)cc1CN1C(=O)c2ccccc2C1=O`: 14.7%; `OC(c1nc2ccc(F)cc2[nH]1)C(O)c1nc2ccc(F)cc2[nH]1` (stereo not drawn): 16.3%.
Next, `O=C(Nc1nnc(-c2ccc(F)cc2)s1)c1c(F)cccc1Cl`: 14.9%.
As to `NC(=O)c1ccsc1NC(=O)CS(=O)(=O)c1ccc(Cl)cc1`, the “hERG current change (%, negative = inhibition) at 1uM” value is reported as -10.8%.
With `O=C(CSc1nc(O)c(C2CCCCC2)c(=O)[nH]1)N1CCOCC1` the figure was 11.1%.
With `COC(=O)c1cc(NC(=O)c2c(Cl)nc3sccn23)cc(C(=O)OC)c1` the figure was 17.3%.
Next, `O=C(NCCCN1CCOCC1)c1ccc2c(c1)N(Cc1c(F)cccc1Cl)C(=O)CS2`: -0.0804%; `O=C(NCC(=O)N(CC1CCCO1)C1(C(=O)NC2CCCCC2)CCCCC1)c1ccccc1` (stereo not drawn): 5.09%; `CCOC(=O)c1cccc(-[n+]2c(-c3ccccc3)cc(-c3ccccc3)cc2-c2ccccc2)c1.[O-][Cl+3]([O-])([O-])[O-]`: -12.7%.
For `Cc1ccccc1S(=O)(=O)Cc1ccc(C(=O)O)o1`, the “hERG current change (%, negative = inhibition) at 1uM” value is listed as 13.1%.
With `CCCCCOP(=O)(c1ccccc1)c1ccccc1`, the “hERG current change (%, negative = inhibition) at 1uM” value was -4.96%.
Next, `Cc1cc(=O)n(Cc2ccccc2)c2ccccc12`: 12.2%; `Cc1cccc2c1cnn2C(=O)CCC(=O)N1CC(C)CC(C)C1` (stereo not drawn): 3.11%; `O=C(O)CSc1ncnc2scc(-c3ccc(Br)cc3)c12`: -1.58%.
`CCC(C)(C)NC(=O)C(c1cccn1C)N(C(=O)Cn1nnc2ccccc21)c1ccc(NC(C)=O)cc1` (stereo not drawn): the “hERG current change (%, negative = inhibition) at 1uM” value came to 4.96%.
Next, `C=CCN1C(=O)C(CC(=O)Nc2ccccc2)SC1=Nc1c(C)n(C)n(-c2ccccc2)c1=O` (stereo not drawn): 9.45%.
Next, `COc1cc([N+](=O)[O-])ccc1NC(=O)COC(=O)C=C(C)C`: 6.05%.
Next, `COCCCN1C(=O)/C(=C/c2ccc(CNS(=O)(=O)c3ccccc3)o2)C(C(=O)OC)=C1C`: 8.3%; `Cc1ccc(CSCc2ccc(C(=O)NCCC(C)C)o2)cc1`: 13.4%.
As to `O=C(NC1c2ccccc2-c2ccccc21)N1CCOCC1`, the “hERG current change (%, negative = inhibition) at 1uM” value is reported as -7.28%.
Next, `CCOc1ccccc1C(=O)NCc1ccc2c(c1)OCO2`: -0.201%; `COC(=O)c1cnn(-c2ccc(F)cc2F)c1/C=N/NC(=S)NC(C)(C)C`: 11.7%; `O=C(COc1ccc(Cl)cc1Cl)NCCCNC(=O)c1cnccn1`: -19.9%.
With `O=C(Nc1ccccc1)C(Cl)C(=O)c1ccccc1` (stereo not drawn) the figure was 12.2%.
